According to PubChem BioAssay AID504332 (National Center for Advancing Translational Sciences (NCATS), 2011):
About 31,000 (8.9%) of roughly 350,000 compounds were called active. The inconclusive results got no clear call from the source; some entries with a clear call stand among them for comparison. The call rests on the fitted dose curve; in most records, active means well fitted inhibition curve with a large enough effect; inconclusive means small, poorly fitted or top-dose-only effect; inactive means no such curve, though single readings can be large or run the other way. A potency beside an inconclusive call is a rough fit, not a confirmed value.

molecular target: Histone-lysine N-methyltransferase EHMT2 (Homo sapiens) (UniProt Q96KQ7); assay: qHTS Assay for Inhibitors of Histone Lysine Methyltransferase G9a; conditions: G9a H3K9 monomethylation, AlphaScreen, 2 h; activity, negative = inhibition: at 59 µM (top of the series) unless noted; further: nearly all actives have a fitted effect of over 75% in size
Method in brief: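 Readings reflect AlphaScreen signal from monomethyl-H3K9 antibody detection. HMT at 20 nM; substrate b-H3K9 500 nM; cofactor SAM 20 uM; 2 h RT reaction; compounds tested as titrations in qHTS with 15 min preincubation.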
On the % scale 0 is the no-effect control and ±100 the full control effect; potency means the concentration at half of the fitted maximal effect; tags describe the fitted curve by direction and shape.

Sequence of UniProt Q96KQ7 (Q96KQ7 whole entry, looked up): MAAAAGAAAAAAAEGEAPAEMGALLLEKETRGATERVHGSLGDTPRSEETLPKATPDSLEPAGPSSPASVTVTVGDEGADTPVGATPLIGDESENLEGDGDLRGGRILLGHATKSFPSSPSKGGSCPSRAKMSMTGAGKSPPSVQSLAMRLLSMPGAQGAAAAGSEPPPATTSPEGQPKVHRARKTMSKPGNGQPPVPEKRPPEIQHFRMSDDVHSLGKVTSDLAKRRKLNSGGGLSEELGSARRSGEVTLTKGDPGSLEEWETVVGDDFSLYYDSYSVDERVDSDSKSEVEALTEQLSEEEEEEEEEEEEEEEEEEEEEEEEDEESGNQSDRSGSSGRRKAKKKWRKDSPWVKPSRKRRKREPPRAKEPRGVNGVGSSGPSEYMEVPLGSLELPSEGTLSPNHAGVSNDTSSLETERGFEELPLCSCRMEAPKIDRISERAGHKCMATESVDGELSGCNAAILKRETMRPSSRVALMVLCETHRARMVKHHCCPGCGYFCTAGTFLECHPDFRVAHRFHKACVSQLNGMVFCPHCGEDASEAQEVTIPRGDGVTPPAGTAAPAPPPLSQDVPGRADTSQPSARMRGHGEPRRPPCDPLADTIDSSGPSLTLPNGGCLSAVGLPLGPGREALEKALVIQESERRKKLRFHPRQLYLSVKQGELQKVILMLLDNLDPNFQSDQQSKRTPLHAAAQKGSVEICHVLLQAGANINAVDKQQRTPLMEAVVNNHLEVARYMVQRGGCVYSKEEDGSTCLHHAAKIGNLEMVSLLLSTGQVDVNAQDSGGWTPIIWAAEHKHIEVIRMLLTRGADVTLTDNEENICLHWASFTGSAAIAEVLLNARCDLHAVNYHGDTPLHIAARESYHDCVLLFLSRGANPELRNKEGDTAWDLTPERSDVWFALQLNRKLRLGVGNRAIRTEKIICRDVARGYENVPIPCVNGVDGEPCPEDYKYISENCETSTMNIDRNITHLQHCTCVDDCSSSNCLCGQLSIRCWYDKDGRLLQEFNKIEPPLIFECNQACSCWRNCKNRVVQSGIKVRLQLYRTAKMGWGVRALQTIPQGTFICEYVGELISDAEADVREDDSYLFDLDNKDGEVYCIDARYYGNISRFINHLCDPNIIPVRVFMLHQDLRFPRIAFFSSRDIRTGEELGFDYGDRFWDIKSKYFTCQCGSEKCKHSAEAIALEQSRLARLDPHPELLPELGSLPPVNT

Compound | activity, negative = inhibition | Potency
Cc1nn(C)c(C)c1S(=O)(=O)N1CCC(C(=O)NC2CCCc3ccccc32)CC1 (stereo not drawn) | inactive: 7% [at 102 µM] | –
S=C(NCCCNC(=S)Nc1ccccc1)Nc1ccccc1 | inactive: -9.87% | –
CCc1cccc2sc(N(CCCN3CCOCC3)C(=O)CS(=O)(=O)c3ccccc3)nc12 | inactive: 6.07% [at 102 µM] | –
COc1ccccc1-n1c(CNC(=O)c2ccc(S(=O)(=O)N3CCCCC3)cc2)n[nH]c1=S | – | active: 22.4 µM
Cc1cccc(-c2nc(SCCCOc3ccc(Cl)c(C)c3)n3[nH]c(=O)cc3n2)c1 | inactive: 20.1% | –
CCN(CC)CCCN1C(=O)c2oc3ccccc3c(=O)c2C1c1cccc(OC)c1OC (stereo not drawn) | – | inconclusive: 89.1 µM [inhibitor, single point]
COc1ccc([N+](=O)[O-])cc1/C=N/NC(=O)/C(=C\c1cccs1)NC(=O)c1ccccc1 | – | active: 89.1 µM
COc1cccc(OCc2nnc(SCC(=O)N3c4ccccc4Sc4ccc(Cl)cc43)o2)c1 | – | active: 28.2 µM
CN1CCCC(OC(=O)c2cc(Cl)cc(Cl)c2)C1 (stereo not drawn) | – | inconclusive: 79.4 µM [inhibitor, single point]
CCOc1cc(/C=C2/C(=O)ON=C2C)cc(Br)c1O | – | active: 44.7 µM
CC(C)[C@H](NC(=O)c1ccccc1F)C(=O)Nc1nc2c(s1)CCCC2 | – | inconclusive: 2.51 µM [inhibitor, full curve]
CCN1CCN(c2ncc3c(n2)CCN(Cc2ccc(OC(C)C)cc2)C3)CC1 | – | inconclusive: 35.5 µM [inhibitor, single point]
Cc1ccc(C2(C)NC(=O)N(CC(=O)N(C)CC(=O)Nc3cccc(F)c3)C2=O)cc1 (stereo not drawn) | – | inconclusive: 4.47 µM [inhibitor, single point]
N#Cc1cc(O)c(-n2nnc3ccccc32)cc1C#N | – | inconclusive: 89.1 µM [inhibitor, single point]
COc1ccc(C(=O)Oc2cc(N)n(S(=O)(=O)c3ccc(C)cc3)n2)cc1 | inactive: 7.19% [at 102 µM] | –
CCOC(=O)c1sc(N2C(=O)C(O)=C(C(=O)c3ccco3)C2c2cccc([N+](=O)[O-])c2)nc1C (stereo not drawn) | – | active: 44.7 µM
CCc1nn(Cc2cc(C)ccc2C)c(=O)c2cc3cc(C)ccc3n12 | inactive: 0.436% | –
CC(NC(=O)C(c1ccccc1)c1ccccc1)c1ccc(S(N)(=O)=O)cc1 (stereo not drawn) | – | inconclusive: 17.8 µM [inhibitor, partial curve, poor fit]
CN(C)CCCn1c(=S)[nH]c2sc3c(c2c1=O)CCCC3 | – | active: 7.94 µM
COc1cc(OC)cc(C(=O)NCC(=O)OCC(=O)Nc2ccc(C)c(S(=O)(=O)N3CCOCC3)c2)c1 | – | inconclusive: 89.1 µM [inhibitor, single point]
O=S(=O)(C(=CNc1ccccc1)S(=O)(=O)c1ccccc1)c1ccccc1 | inactive: 7.17% | –
O=C(NNc1nc2c(F)cccc2s1)C1COc2ccccc2O1 (stereo not drawn) | inactive: 42.9% [at 102 µM] | –
COc1ccc(C2(CNC(=O)C(=O)Nc3ccc(F)cc3)CCCC2)cc1OC | inactive: -3.37% | –
COc1ccccc1NC(=O)c1ccc(N)cc1 | – | inconclusive: 22.4 µM [inhibitor, partial curve]

Compound | activity, negative = inhibition | Potency
COCC(=O)OCC(=O)Nc1ccc(Cl)cc1[N+](=O)[O-] | inactive: 2.62% [at 102 µM] | –
CCOc1ccccc1NC(=O)CSc1nc2cc(O)ccc2c(=O)n1-c1ccc(OC)c(OC)c1 | inactive: 3.81% [at 102 µM] | –
Cc1ccccc1C1CC(=O)Oc2ccc(O)cc21 (stereo not drawn) | – | active: 10 µM
COc1ccc(-c2oc3ccccc3c(=O)c2OCC(=O)O)cc1 | inactive: 2.4% [at 102 µM] | –
O=C(CCN1C(=O)c2ccccc2C1=O)NCc1cccc(Cl)c1 | inactive: -2.07% [at 102 µM] | –
S=c1[nH]ccn1-c1cccc(Cl)c1 | – | inconclusive: 3.98 µM [inhibitor, full curve, poor fit]
O=C(CCC(=O)Nc1ccc(F)cc1)N/N=C/c1ccncc1 | inactive: 6.46% [at 102 µM] | –
O=C(Cn1cnc2ccccc21)N/N=C/C(Br)=C/c1ccccc1 | inactive: 3.66% | –
Cc1ccc(-n2ncc(C(=O)O)c2C2CCN(C(=O)OC(C)(C)C)CC2)cc1 | – | inconclusive: 39.8 µM [inhibitor, single point]
Cc1ccc(S(=O)(=O)CCC(=O)Nc2ccc3nc(C)sc3c2)cc1 | – | inconclusive: 17.8 µM [inhibitor, single point]
CCOC(=O)c1cn(CC)c2ccc(Br)cc2c1=O | – | inconclusive: 56.2 µM [inhibitor, partial curve, poor fit]
CCOc1ccccc1NC(=O)CSc1ccc(-c2sc(C)nc2C)nn1 | – | inconclusive: 15.8 µM [inhibitor, full curve]
O=C1/C(=C/c2cccnc2)CCc2c1[nH]c1ccccc21 | – | inconclusive: 89.1 µM [inhibitor, single point]
CCCc1cc(C(=O)Nc2cc(Cl)ccc2O)no1 | – | inconclusive: 39.8 µM [inhibitor, single point]
O=C(NC(NCCCN1CCOCC1)(C(F)(F)F)C(F)(F)F)C1CCCCC1 | – | inconclusive: 3.55 µM [inhibitor, partial curve, poor fit]
COc1ccc(CN2CCN(c3ncnc4sc5c(c34)CC(C)CC5)CC2)cc1F (stereo not drawn) | – | inconclusive: 25.1 µM [inhibitor, partial curve, poor fit]
CCOc1ccc(C(=O)NCCS(=O)(=O)N2CCN(c3ccccc3F)CC2)cc1OCC | inactive: 0.656% | –
CCCC(=O)Nc1ccc(S(=O)(=O)Nc2cc(OC)nc(OC)n2)cc1 | inactive: 6.12% [at 102 µM] | –
O=C(CCn1cccc1)Nc1ccc(OC(F)(F)F)cc1 | – | inconclusive: 56.2 µM [inhibitor, partial curve]
Cc1cc(NC(=O)CSCC(=O)Nc2nc3ccccc3s2)no1 | – | inconclusive: 28.2 µM [inhibitor, single point]
COc1ccc(N(C)S(=O)(=O)c2cccc(C(=O)Nc3cc(OC)ccc3OC)c2)cc1 | – | inconclusive: 31.6 µM [inhibitor, single point]
COc1ccc(Cc2c(O)nc(SCC(=O)c3ccc(OC)cc3)[nH]c2=O)cc1 | – | inconclusive: 50.1 µM [inhibitor, partial curve]
CCOC(=O)CNC(=O)N1CCCC(CCC(=O)NCc2ccc(F)c(F)c2)C1 (stereo not drawn) | inactive: 31.5% [at 102 µM] | –
O=C1/C(=C/C=C/c2ccco2)SC(=S)N1c1ccc(O)cc1 | – | active: 12.6 µM
